Laboratory results from patent US20140289906A1, “Compositions Having Dicamba Decarboxylase Activity and Methods of Use” (priority 2013, published 2014).

B1: 66 (protein, listed as Amphimedon queenslandica)
chain: MASGIKVDIHNHILPERWPDLKERYGYGGWIQLHHHCQGKARMLKDGQLFRVVDENCWSPEARIKDMDNTGVTVQALSTVPVMFSYWAKPEDTLDLCKILNNDLAQTVAKFPKRFVGLGTLPMQAPELAVQELKRCIKELGFPGVQIGSHVNEWNLDATELQCVFAAAEELNAAVFVHPWDMETGGRMSKYWLPWLVGMPAETATAICSVLFGGVLERHPNLKICFAHGGGSFPYTIGRIEHGFNVRPDLCATENSVNPRSYIGKVYTDSLVHDQKALKFLVDIIGEDRVVLGSDYPFPLGEHFPGKLIESIEEWDTSLKDKLLSKNAFEFLGLDPSQYET
B2: 67 (protein, listed as Amblyomma maculatum)
chain: MASSFSAAANLKIDLHAHVTPDRWPNLRERYGYGGWLDIKHESDKTAVMSYDDGRFFRRIESNCWNIDERIADMDRTGVTVQALSTTPVLFSYWAKPEDALDFSRLQNDFVASLVNRRPDRFVGMCTVPMQSPQLAAEELKRCVSQLGFRAVIVGSHINEWTLADRALDPFYRTVKELGVSIFVHPWDMPPSTRYNKYWLQWLVGMPAETTAAICEVIFGGLLERFPRLKLCFAHGAGSFPYTVGRIQHGFDVRPDLCAVDNKIPPKGYLGEIYADSLVHNRGSLRLLLDTLGEDRVMLGSDYPYPLGEIDRPGRLIETSGLQNSVKEKLLWKKCCELPRN
B3: 65 (protein, listed as Ailuropoda melanoleuca)
chain: MAKIDVHSHILPKEWPDLKKRFGYGGWVQLQHHNKGEAKMMKDGKVFRVVQENCWDPEVRIREMDQTGVTVQALSTVPVMFSYWAKPQDTLDLCQLLNNDLAATVANHPRRFVGLGTLPMQAPELAVKEMERCVKELGFPGVQIGSHINEWDLNAKELFPVYAVAEKLNCSLFVHPWDMQMDGRMAKYWLPWLVGMPAETTTAICSMIMGGVFEKFPKLKVCFAHGGGAFPFTVGRISHGFNMRPDLCAQDNPINPKKYLGSFYTDSLVHDPLALKLLTDVIGKDKVILGTDYPFPLGELEPGKLIESMEEFEEETKDKLKAGNALAFLGLERKQFE

Experiment: 14C assay: 14CO2 capture from [14C]-carboxyl-labeled dicamba with IPTG-induced recombinant E. coli cells
Conditions: IPTG-induced recombinant E. coli cells; 14CO2 from [14C]-carboxyl-labeled dicamba

| Molecule | Dicamba Decarboxylase Activity |
| --- | --- |
| B1 | Low |
| B2 | Low |
| B3 | Low |

Same assay, conditions: dicamba decarboxylation activity

| Molecule | Enzymatic Detection level |
| --- | --- |
| B1 | Low |
| B2 | Low |
| B3 | Low |
